# Source: PubChem BioAssay AID485281 (National Center for Advancing Translational Sciences (NCATS), 2010)
# The campaign covered roughly 350,000 compounds. About 260 (0.074%) were called active. The shares of active, inactive and inconclusive entries below differ from those in the screen. Calls follow the shape of the dose curve; as a rule, active = well fitted inhibition curve with a large enough effect; inconclusive = small, poorly fitted or top-dose-only effect; inactive = no such curve, though single readings can be large or run the other way. Potencies of inconclusive entries are doubtful fits and often do not repeat.
# Biological target: Ferritin light chain (Equus caballus) (UniProt P02791)
# Test: qHTS Assay for Identification of Novel General Anesthetics; also: nearly all actives have a fitted effect of over 20% in size
# Conditions: apoferritin/1-aminoanthracene competitive binding, fluorescence; series mostly up to 77.5 µM
# How it was run: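 Read-out: endpoint 1-AMA fluorescence, excitation 380 nm and emission 535 nm, after compounds sit 10 min at room temperature with 10 uM horse-spleen apoferritin in 50% saturated 1-AMA/PBS. Values come from four-parameter Hill fits.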
# Potency is read from the fitted curve at half-maximal effect; tags tell the direction and shape of the fitted curve.
# Chain of UniProt P02791 (P02791 whole entry, looked up): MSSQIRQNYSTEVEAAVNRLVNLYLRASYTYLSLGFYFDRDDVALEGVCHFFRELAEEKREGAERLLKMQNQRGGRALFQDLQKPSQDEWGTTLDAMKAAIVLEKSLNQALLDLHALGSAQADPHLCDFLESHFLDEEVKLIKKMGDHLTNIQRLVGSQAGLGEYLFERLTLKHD
row,SMILES,Potency
1,Cc1noc(/C=C/c2ccco2)c1S(=O)(=O)N1CCC(C(=O)N(C)Cc2ccccc2)CC1,"inconclusive: 10 µM [inhibitor, partial curve]"
2,Cc1c(C(=O)NCc2cccnc2)sc2nc(-c3ccc(F)cc3)cn12,"inconclusive: 31.6 µM [inhibitor, single point]"
3,CCC1=C/C(=C/c2sc3ccccc3[n+]2CC)CC(C)(C)C1,"inconclusive: 25.1 µM [inhibitor, partial curve]"
4,Cc1cc(NC(=O)COC(=O)COc2cccc3c2OC(C)(C)C3)no1,"inconclusive: 31.6 µM [inhibitor, partial curve]"
5,Cc1cccc(S(=O)(=O)c2cn(Cc3ccccc3)c3cc(N4CCCCC4)c(F)cc3c2=O)c1,inactive
6,O=C(NCCc1c[nH]c2ccccc12)c1ccc(F)cc1F,inactive
7,CCN(CC)C(=O)c1c(-c2ccccc2)c(-c2ccccc2)nn(CC)c1=O,"inconclusive: 7.94 µM [inhibitor, single point]"
8,CC(C)(C)OC(=O)N1CCC(c2c(C(=O)NC3CCCCC3)cnn2-c2ccc(F)cc2F)CC1,"inconclusive: 8.91 µM [inhibitor, partial curve]"
9,Cc1ccc(S(=O)(=O)C(CNS(=O)(=O)c2cc(F)ccc2F)c2cccs2)cc1 (configuration not stated),inactive
10,Cc1ccccc1-c1noc(-c2ccccc2OCC(=O)Nc2cccc([N+](=O)[O-])c2)n1,"inconclusive: 7.08 µM [inhibitor, partial curve]"
11,Fc1ccccc1CSc1nncn1NCc1cccs1,"inconclusive: 28.2 µM [inhibitor, single point]"
12,COc1ccc(NC(=O)CSc2ccccc2)c([N+](=O)[O-])c1,"inconclusive: 20 µM [inhibitor, partial curve]"
13,C/C(=N\S(=O)(=O)c1ccc(C)cc1)N1CCN(S(=O)(=O)c2ccccc2)C1C(C)C (configuration not stated),"inconclusive: 31.6 µM [inhibitor, partial curve]"
14,Cc1ccc(Cl)cc1NC(=O)c1cc2ccccc2cc1O,inactive
15,COc1ccc(N2C(=O)C(Cl)=C(Nc3ccccc3O)C2=O)cc1,"inconclusive: 35.5 µM [inhibitor, partial curve]"
16,COc1ccc(OCC(=O)NCCC2=CCCCC2)c([N+](=O)[O-])c1,"inconclusive: 35.5 µM [inhibitor, partial curve]"
17,Cc1ccc(N=Nc2c(=O)[nH]n3c(=O)cc(C)[nH]c23)cc1,"inconclusive: 28.2 µM [inhibitor, single point]"
18,COc1cnc(SCc2c(Cl)cccc2Cl)nc1Cl,"inconclusive: 17.8 µM [inhibitor, partial curve]"
19,CN(c1ccc(C(=O)Nc2ccc(Cl)cn2)cc1)S(=O)(=O)c1ccccc1,inactive
20,c1ccc(C2=Nn3c(nnc3-c3cc(-c4ccccc4)n[nH]3)SC2)cc1,"inconclusive: 31.6 µM [inhibitor, single point]"
21,CCc1cccc(OCCn2nc(C(=O)O)c3ccccc3c2=O)c1,"inconclusive: 35.5 µM [inhibitor, partial curve]"
22,CC/C(Cc1ccccc1)=N/NC(=O)CCn1nnc2ccccc21,"inconclusive: 25.1 µM [inhibitor, partial curve]"
23,O=C(O)c1ccccc1Sc1c([N+](=O)[O-])cc(C(F)(F)F)cc1[N+](=O)[O-],inactive

row,SMILES,Potency
1,Cn1c(=O)c2c(nc(N3CCC(C(N)=O)CC3)n2CCSc2nc3ccccc3s2)n(C)c1=O,"inconclusive: 28.2 µM [inhibitor, single point]"
2,CC1Cc2ccccc2N1C(=O)c1cnsn1 (configuration not stated),"inconclusive: 35.5 µM [inhibitor, partial curve]"
3,C/C(N)=C(/C#N)C(=O)CSc1nnc(Nc2cccc(C)c2C)s1,"inconclusive: 35.5 µM [inhibitor, partial curve]"
4,Cc1ccc(OCC(=O)n2nc(C)cc2C)c(C)c1,"inconclusive: 20 µM [inhibitor, partial curve]"
5,Cc1ccc(Nc2ccccc2N)cc1,"inconclusive: 25.1 µM [inhibitor, partial curve]"
6,Cc1cc(C)cc(N2Cc3ccccc3C2)c1,"inconclusive: 44.7 µM [inhibitor, single point]"
7,COc1ccc(CNC(=O)c2noc3c2CCCCC3)cc1,"inconclusive: 25.1 µM [inhibitor, partial curve]"
8,Cc1cccc(OC(=O)CSc2nnc(-c3ccc4c(c3)OCO4)o2)c1C,inactive
9,CCCOC1CCCN(C(=O)CCc2nnc(-c3ccc4c(c3)OCO4)o2)C1 (configuration not stated),inactive
10,Cc1cccc2cc(CN(CC3CCCO3)C(=O)c3ccco3)c(=O)[nH]c12 (configuration not stated),inactive
11,COc1ccccc1NC(=O)c1oc2ccccc2c1NC(=O)c1ccco1,inactive
12,Cc1ccc(NC(=O)COC(=O)c2cc(-c3cccs3)nn2-c2ccccc2)cc1[N+](=O)[O-],"inconclusive: 4.47 µM [inhibitor, full curve]"
13,Cc1ccc(/C=N/NC(=O)CCCOc2ccc(Cl)cc2Cl)cc1,"inconclusive: 17.8 µM [inhibitor, partial curve]"
14,CC(C)c1ccc(/C=N/NC(=O)c2ccccn2)cc1,inactive
15,Cc1nc(NCCO)c(C#N)c2c1COC(C)(C)C2,inactive
16,Cc1ccc(NC(=O)c2ccc(CSc3ncnc4nc[nH]c34)cc2)c(C)c1,"inconclusive: 17.8 µM [inhibitor, partial curve]"
17,Cc1ccc(Cn2c(C(=O)O)c(CNCc3ccc(C)o3)c3ccc(C)cc32)cc1,"inconclusive: 22.4 µM [inhibitor, partial curve]"
18,O=C(NCCC1=CCCCC1)c1ccc2c(c1)sc1nc(-c3ccc(F)cc3)cn12,inactive
19,CC(C)(C)NC(=O)[C@@H]1C[C@H]2CCCC[C@@H]2CN1C[C@H](O)[C@H](Cc1ccccc1)NC(=O)[C@@H](CC(N)=O)NC(=O)c1ccc2ccccc2n1,"inconclusive: 11.2 µM [inhibitor, partial curve]"
20,Cc1ccc(-c2csc(NC(=O)CSc3nc(C)cc(=O)[nH]3)n2)cc1,"inconclusive: 17.8 µM [inhibitor, partial curve]"
21,CCN(CC)c1ccc(NC(=O)CN2CCN(CC(=O)Nc3ccc(Cl)cc3)CC2)cc1,inactive
22,CC(C)C[C@H](NC(=O)[C@H](Cc1ccccc1)C[C@@H](O)[C@H](Cc1ccccc1)NC(=O)OC(C)(C)C)C(=O)N[C@@H](Cc1ccccc1)C(N)=O,inactive
23,COc1ccc(-c2nnc3n2N=C(c2cccc(OC)c2)CS3)cc1,"inconclusive: 39.8 µM [inhibitor, partial curve]"

row,SMILES,Potency
1,Cc1cc(CN(C)C(=O)c2cc(COc3ccc(C)c(C)c3)on2)on1,"inconclusive: 31.6 µM [inhibitor, single point]"
2,N#Cc1c(Cl)cccc1N1CCCC1,inactive
3,O=C(NCCCNC(=O)c1ccco1)c1ccc(Cl)cc1,inactive
4,CCOC(=O)C1=C(O)C(=O)N(c2ccc(S(N)(=O)=O)cc2)C1c1ccc(OC)cc1OC (configuration not stated),inactive
5,CCCCc1ccc(NC(=S)NCc2ccc(OC)cc2)cc1,"inconclusive: 11.2 µM [inhibitor, partial curve]"
6,Cc1ccc(C)c(Cn2nnc3c(=O)[nH]c(C4CCCN(C(=O)CC(C)C)C4)nc32)c1 (configuration not stated),"inconclusive: 17.8 µM [inhibitor, partial curve]"
7,Cn1ncc(SCc2ccccc2)c(Cl)c1=O,"inconclusive: 25.1 µM [inhibitor, partial curve]"
8,COc1ccc(S(=O)(=O)N2CCCCCC2)cc1,"inconclusive: 39.8 µM [inhibitor, partial curve]"
9,CSc1ccc(S(=O)(=O)N2CCC(C(=O)NCc3ccco3)CC2)cc1,inactive
10,Cc1nc(SCC(=O)N(C)Cc2ccco2)c2c(C)c(C)sc2n1,"inconclusive: 39.8 µM [inhibitor, partial curve]"
11,CCN(CC)c1ccc(N=Cc2ccc(N(CC)CC)cc2O)cc1,"inconclusive: 20 µM [inhibitor, partial curve]"
12,COc1ccc(/C=C/C(=O)Nc2ccc(C34CC5CC(CC(O)(C5)C3)C4)cc2)cc1OC,"inconclusive: 11.2 µM [inhibitor, full curve, poor fit]"
13,Clc1ccc(-c2ccc(C=Nc3ccc(N4CCOCC4)cc3)o2)c(Cl)c1,"inconclusive: 3.55 µM [inhibitor, full curve]"
14,CC(=O)N[C@@H](CSC/C=C(\C)CC/C=C(\C)CC/C=C(\C)CCC=C(C)C)C(=O)O,"inconclusive: 28.2 µM [inhibitor, single point]"
15,Oc1cccc(-c2nc3ccccc3s2)c1,"inconclusive: 39.8 µM [inhibitor, single point]"
16,COc1ccc(C(=O)COC(=O)CN2C(=O)C3C4C=CC(C4)C3C2=O)cc1 (configuration not stated),"inconclusive: 35.5 µM [inhibitor, partial curve]"
17,O=C(c1ccc2c(c1)N(Cc1ccc(Cl)cc1)C(=O)c1ccccc1S2(=O)=O)N1CCCCCC1,"inconclusive: 5.62 µM [inhibitor, partial curve]"
18,NC(=O)CC(NC(=O)c1ccccc1)c1ccc(NCCc2cccc(F)c2)c([N+](=O)[O-])c1 (configuration not stated),"inconclusive: 31.6 µM [inhibitor, single point]"
19,C/C(CC(=O)NC1CCCCC1)=N\NC(=O)Cc1ccc(-c2ccccc2)cc1,"inconclusive: 11.2 µM [inhibitor, full curve]"
20,CC1(C)Cc2ccccc2-c2nnc(SCc3ccc(C#N)cc3)n21,"inconclusive: 31.6 µM [inhibitor, partial curve]"
21,Cn1cc(Br)c(C(=O)N2CCCCCC2)n1,"inconclusive: 35.5 µM [inhibitor, single point]"
